# Test results from patent US12535491B2, “Vaccine comprising protein-targeted (PT) extracellular DNA isolated from bacterial matrix” (priority 2018, dated 2026).
# T1: SU-DHL4 cell lines with high CD20 receptor copy numbers (Homo sapiens, UniProt P11836)
# T1 construct: endogenous in cells; host or cells: SU-DHL4
# T1 sequence (P11836 1-297): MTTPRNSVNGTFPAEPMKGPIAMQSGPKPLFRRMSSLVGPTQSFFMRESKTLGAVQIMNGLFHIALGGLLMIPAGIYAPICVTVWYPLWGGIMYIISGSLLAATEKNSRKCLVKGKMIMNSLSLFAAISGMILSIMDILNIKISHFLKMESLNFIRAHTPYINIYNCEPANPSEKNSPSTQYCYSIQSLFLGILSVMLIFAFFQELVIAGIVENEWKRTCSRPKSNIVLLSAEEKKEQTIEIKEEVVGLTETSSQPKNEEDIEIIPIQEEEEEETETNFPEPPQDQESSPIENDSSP
# Columns and labels:
# [1] = biological target: T1, SU-DHL4 cell lines with high CD20 receptor copy numbers; assay: Binding to CD20-expressing target cells; conditions: SU-DHL4, antibody concentrations up to 10 μg/mL
# Procedure: (§1) The efficacies of Rituximab and Rituximab-Mod were compared based on Binding to CD20-expressing target cells and antibody-dependent cell-mediated cytotoxicity [ADCC] assays.
# (§2) The binding of Rituximab-Mod and rituximab was assessed on SU-DHL4 cell lines with high (1,000,000) CD20 receptor copy numbers. […] The ability of Rituximab-Mod and rituximab to mediate ADCC was assessed using SU-DHL4 target cell lines. The potency of Rituximab-Mod was higher than that of rituximab.
# [2] = system: SU-DHL4 target cell lines; assay: Antibody-dependent cell-mediated cytotoxicity (ADCC) assay; type: cell-based; conditions: SU-DHL4 target cells
# Procedure: as §1, §2
molecule,measurement,setting,value
"Rituximab-Mod: modified Rituximab antibodies with added PrDs (SEQ ID NO: 5) (protein, Synthetic peptide (Rituximab-Mod)) VQLQQPGAELVKPGASVKMSCKASGYTFTSYNMHWVKQTPGRGLEWIGAIYPGNGDTSYNQKFKGKATLTADKSSSTAYMQLSSLTSEDSAVYYCARSTYYGGDWYFNVWGAGTTVTVSAASTKGPSVFPLAPSSKSTSGGTAALGCLVKDYFPEPVTVSWNSGALTSGVHTFPAVLQSSGLYSLSSVVTVPSSSLGTQTYICNVNHKPQNQNQNQNQNQNQNSNTKVDKKA[human IgG1 Fc not written out]QNQNQNQNQNQNQN",maximal binding intensity to tumor cells relative to rituximab at the same concentrations,[1],over 2 times
same,EC50 of target cell killing (ADCC),[2],~0.1 ng/mL
same,overall killing efficacy (ADCC) versus rituximab,[2]; particularly at low antibody concentrations,higher overall killing efficacy
